{
  "source": "the antibiotic and cytotoxicity screens of Wong et al. (2023)",
  "note": "Some of the results follow.",
  "data": [
    {"tested_on": "HepG2", "test": "cytotoxicity call (relative viability < 0.9)", "details": "10 µM", "values": [
      {"compound": "C[C@@H]1CN([C@@H](C)CO)C(=O)Cc2cc(N(C)C)ccc2O[C@@H]1CN(C)S(=O)(=O)c1ccc(F)cc1", "cytotoxicity call": "inactive"},
      {"compound": "CC(C)NC(=O)N(C)C[C@@H]1Oc2cc(C#Cc3cccc(F)c3)ccc2S(=O)(=O)N([C@@H](C)CO)C[C@H]1C", "cytotoxicity call": "inactive"},
      {"compound": "CCOC(=O)Cc1nnc(CC(=O)OCC)[nH]1", "cytotoxicity call": "inactive"},
      {"compound": "C[C@@H]1CCCCO[C@H](CN(C)CC2CCCCC2)[C@@H](C)CN([C@H](C)CO)C(=O)c2cc(NS(=O)(=O)c3cccs3)ccc2O1", "cytotoxicity call": "inactive"},
      {"compound": "Cc1ccc(S(=O)(=O)Nc2ccc3c(c2)C(=O)N([C@H](C)CO)C[C@H](C)[C@@H](CN(C)Cc2ccccc2)OCCCC[C@@H](C)O3)cc1", "cytotoxicity call": "inactive"},
      {"compound": "C[C@@H]1CN([C@@H](C)CO)C(=O)Cc2cc(NS(=O)(=O)c3ccc(F)cc3)ccc2O[C@H]1CN(C)Cc1ccc(Cl)c(Cl)c1", "cytotoxicity call": "inactive"},
      {"compound": "COc1ccc2c3c([nH]c2c1)[C@H](CO)N(C[C@]13CN(CCc2ccccc2)C1)C(=O)CN1CCOCC1", "cytotoxicity call": "inactive"},
      {"compound": "C[C@@H]1CCCCO[C@@H](CN(C)Cc2ccccc2)[C@@H](C)CN([C@H](C)CO)C(=O)c2cc(NC(=O)C3CCCCC3)ccc2O1", "cytotoxicity call": "inactive"},
      {"compound": "C[C@@H]1CN([C@@H](C)CO)C(=O)c2cc(NC(=O)Cc3cn(C)c4ccccc34)ccc2O[C@H]1CN(C)C(=O)Nc1ccc(C(F)(F)F)cc1", "cytotoxicity call": "inactive"},
      {"compound": "C[C@@H]1CCCCO[C@H](CN(C)Cc2ccccc2)[C@H](C)CN([C@@H](C)CO)C(=O)c2cc(NC(=O)C3CCCCC3)ccc2O1", "cytotoxicity call": "inactive"},
      {"compound": "C[C@@H]1CCCCO[C@@H](CN(C)S(=O)(=O)c2cccs2)[C@@H](C)CN([C@H](C)CO)C(=O)c2cc(NC(=O)C3CCCCC3)ccc2O1", "cytotoxicity call": "inactive"},
      {"compound": "Nc1nc(=O)c2nc(C(=O)O)cnc2[nH]1", "cytotoxicity call": "inactive"},
      {"compound": "CN(C)CCCNC(=O)C[C@@H]1C=C[C@H](NC(=O)Cc2cccnc2)[C@@H](CO)O1", "cytotoxicity call": "inactive"},
      {"compound": "C[C@H]1CCCCO[C@H](CN(C)C(=O)Nc2ccc(F)cc2)[C@@H](C)CN([C@@H](C)CO)C(=O)c2cc(NC(=O)NC3CCCCC3)ccc2O1", "cytotoxicity call": "inactive"},
      {"compound": "C[C@@H]1CN([C@@H](C)CO)C(=O)c2cccc(NC(=O)C3CCCCC3)c2O[C@@H]1CN(C)Cc1ccc(C(F)(F)F)cc1", "cytotoxicity call": "inactive"},
      {"compound": "CNC[C@H]1OCCCC[C@@H](C)Oc2ccc(NC(=O)Nc3ccc(C(F)(F)F)cc3)cc2C(=O)N([C@@H](C)CO)C[C@H]1C", "cytotoxicity call": "inactive"},
      {"compound": "COc1cccc(S(=O)(=O)N(C)C[C@@H]2Oc3ncc(-c4cccc(F)c4)cc3C(=O)N([C@H](C)CO)C[C@@H]2C)c1", "cytotoxicity call": "inactive"},
      {"compound": "COc1ccc(NC(=O)Nc2ccc3c(c2)C(=O)N([C@H](C)CO)C[C@@H](C)[C@@H](CN(C)C(=O)NC(C)C)OCCCC[C@H](C)O3)cc1", "cytotoxicity call": "inactive"},
      {"compound": "CC1(C(=O)O)CCC2(C)CCC3(C)C(=CC(=O)C4C5(C)CCC(O)C(C)(C)C5CCC43C)C2C1", "note": "(stereo not given)", "cytotoxicity call": "inactive"},
      {"compound": "C[C@H]1CCCCO[C@H](CN(C)C(=O)NC2CCCCC2)[C@@H](C)CN([C@@H](C)CO)C(=O)c2cc(NC(=O)Nc3ccccc3)ccc2O1", "cytotoxicity call": "active"},
      {"compound": "C[C@H]1CN([C@@H](C)CO)C(=O)Cc2cc(NS(=O)(=O)c3ccccc3)ccc2O[C@H]1CN(C)Cc1ccncc1", "cytotoxicity call": "inactive"},
      {"compound": "COc1cc2nc(N3CCN(C(=O)C4CCCO4)CC3)nc(N)c2cc1OC.Cl", "note": "(stereo not given)", "cytotoxicity call": "active"},
      {"compound": "CC(C)NC(=O)Nc1ccc2c(c1)C(=O)N([C@@H](C)CO)C[C@H](C)[C@@H](CN(C)C(=O)Nc1ccccc1)OCCCC[C@H](C)O2", "cytotoxicity call": "inactive"},
      {"compound": "Cc1noc(C)c1S(=O)(=O)N(C)C[C@H]1OCCCC[C@@H](C)Oc2ccc(NC(=O)Nc3ccc(C(F)(F)F)cc3)cc2C(=O)N([C@@H](C)CO)C[C@@H]1C", "cytotoxicity call": "inactive"},
      {"compound": "CC(=O)N1C(=O)N(C(C)=O)[C@@H](O)[C@H]1O", "cytotoxicity call": "inactive"},
      {"compound": "C[C@H](CO)N1C[C@H](C)[C@@H](CN(C)Cc2ccc(-c3ccccc3)cc2)Oc2ccc(NC(=O)NC3CCCCC3)cc2C1=O", "cytotoxicity call": "inactive"},
      {"compound": "CC(C)NC(=O)N(C)C[C@H]1OCCCC[C@H](C)Oc2ccc(NC(=O)C3CCCCC3)cc2C(=O)N([C@H](C)CO)C[C@@H]1C", "cytotoxicity call": "inactive"},
      {"compound": "C[C@H](CO)N1C[C@H](C)[C@H](CN(C)C(=O)CN(C)C)Oc2cc(C#Cc3cccnc3)ccc2S1(=O)=O", "cytotoxicity call": "inactive"},
      {"compound": "CN(C)CCCNC(=O)C[C@@H]1C=C[C@@H](NC(=O)Cc2cccnc2)[C@@H](CO)O1", "cytotoxicity call": "inactive"},
      {"compound": "CO[C@@H](CN(C)C(=O)c1ccccc1F)[C@H](C)CN([C@@H](C)CO)S(=O)(=O)c1ccc(Cl)cc1", "cytotoxicity call": "inactive"}
    ]}
  ]
}
